From PubChem BioAssay
This list was built around the results that the source calls inconclusive (neither active nor inactive); the mix of calls is not that of the screen. Active and inactive are the calls of the source.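 Rule for the calls, unless noted: active = viability at or below 27.92% in each of two runs, the all-compound median minus 4 SD; inconclusive = no clear call, values can overlap the other calls; inactive = the rest.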

Experiment: viability of HCT116 without oncogenic beta-catenin – human colon tumor cells, pilot screen (AID 823;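 active = cell viability at or below a set limit in both duplicate runs, the limit being the all-compound median minus 4 SD, cut at about 23% in these data, passing the limit was not always enough; inconclusive = no clear call, values can overlap the other calls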;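 note: 0% = wells killed by 20 µM Hyamine and 100% = untreated DMSO cell wells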)
Conditions: HCT116 beta-catenin knockout viability, CellTiter-Glo, 60 h; at 10 µM; stronger effect = lower value

| SMILES | viability |
| --- | --- |
| CCOc1ccc(N(CC(=O)Nc2ccccc2C)S(=O)(=O)c2c(C)noc2C)cc1 | active: 15.9% |
| COc1ccc(S(=O)(=O)C(C#N)c2nc3ccccc3nc2N2CCC(C)CC2)cc1 (stereo not given) | inconclusive: 79% |
| COCC(=O)NC(C)c1nc2ccccc2[nH]1 (stereo not given) | inactive: 91.9% |
| CC(Sc1nc2c(c(=O)n(C)c(=O)n2C)n1Cc1cc2c(cc1Cl)OCO2)C(=O)O (stereo not given) | inconclusive: 108% |
| CCOC(=O)C1=C(C)N=c2s/c(=C\c3ccncc3)c(=O)n2C1c1ccc2c(c1)OCO2 (stereo not given) | inconclusive: 33.8% |
| CS(=O)(=O)c1nc(-c2cccs2)cc(C(F)(F)F)n1 | inactive: 53.4% |
| CCn1c(=O)c2c3c(sc2n2c(SCc4ccc(F)cc4)nnc12)CCCC3 | inconclusive: 17.1% |
| C#CCN1C(=O)C(O)(CC(=O)c2ccc(OC)c(OC)c2)c2ccccc21 (stereo not given) | inconclusive: 32.4% |
| Cc1ccc(-c2nc(-c3ccccn3)no2)cc1 | inconclusive: 22.7% |
| Cc1cc(N2CCN(S(=O)(=O)c3ccc(Cl)cc3)CC2)c2ccccc2n1 | inconclusive: 21.9% |
| COC(=O)c1cn(NC(=O)C2CCCCC2)c(=O)c2ccccc12 | inactive: 94.3% |
| CCCCn1c(NC(=O)c2ccccc2)nc2ccccc21 | active: 22.1% |
| COC(=O)c1cc(=O)n(Cc2ccco2)c(=Nc2ccc(F)c(Cl)c2)s1 | active: 9.25% |
| O=C(CCCCn1c(=O)[nH]c2ccccc2c1=O)NCCc1c[nH]c2ccccc12 | inactive: 93.5% |
| Cc1cc(NS(=O)(=O)c2ccccc2)cc(Cl)c1O | inconclusive: 42.9% |
| COc1ccc(NC(=O)NCCCN2CCN(c3cc(C)ccc3C)CC2)cc1 | inconclusive: 22% |
| CCN(Cc1ccccc1)S(=O)(=O)c1ccc(C(=O)Nc2nnc(C3CC3)o2)cc1 | inconclusive: 25.3% |
| O=C(Nc1nnc(-c2cccs2)o1)c1cccc(C(F)(F)F)c1 | active: 15.5% |
| O=C(Nc1nnc(C2CC2)o1)c1ccc(S(=O)(=O)N2CCCc3ccccc32)cc1 | active: 14.3% |
| OC(COc1ccc(C2C=CCC2)cc1)CN1CCCCC1 (stereo not given) | inconclusive: 25.4% |

| SMILES | viability |
| --- | --- |
| CCCc1nnc2n1N=C(c1ccc(-c3cc(Cl)ccc3Cl)o1)CS2 | inactive: 97.8% |
| CC1CC(C)(C)Nc2ccc(OC(=O)c3ccco3)cc21 (stereo not given) | active: 1.57% |
| COc1cccc(C(=O)Nc2ccc3nc(N4CCN(c5ncccn5)CC4)cc(C)c3c2)c1OC | active: 9.73% |
| Cn1nc(-c2ccc(Cl)cc2)c2cc(C(=O)NCCN3CCOCC3)sc21 | inconclusive: 36% |
| COc1cccc(-c2nnc(NC(=O)c3cccc(F)c3)o2)c1 | active: 15.9% |
| CCN1c2ccccc2NC2N=C(OC)C(c3ccccc3)C21 (stereo not given) | active: 3.31% |
| O=C1CSC(=S)N1Cc1cccnc1 | active: 8.06% |
| COc1cc(C(=O)Oc2c(CN3CCOCC3)cc(Cl)c3cccnc23)cc(OC)c1OC | active: 6.72% |
| COc1ccccc1-c1c(C)nn2c(N3CCCCCC3)cc(C)nc12 | active: 6.78% |
| CS(=O)(=O)NCCSCc1ccc(Cl)cc1 | inconclusive: 101% |
| Clc1cccc(-c2nnc(-c3ccccc3)o2)c1 | active: 4.61% |
| COc1ccc(C(=O)NC(C)c2nc3ccccc3[nH]2)cc1OC (stereo not given) | inconclusive: 109% |
| Cc1cc(/C=N/n2cnnc2)c(C)n1-c1ccc(OCc2ccc(F)cc2)cc1 | active: 10.2% |
| N#Cc1c(-c2ccccc2)cc(-c2ccco2)c(C#N)c1N | inactive: 38.5% |
| CCCCn1c(=NC(=O)c2ccco2)c(C(=O)OCC)cc2c(=O)n3ccccc3nc21 | inconclusive: 20.6% |
| c1coc(CNc2c3c(nc4ccccc24)CCC3)c1 | inconclusive: 21% |
| O=C(NCCN1CCOCC1)c1ccc(CS(=O)(=O)c2ccc(Br)cc2)o1 | inactive: 99.5% |
| COCc1cc(CN2CCCC2)c(O)c2ncccc12 | active: 8.07% |
| CN1C(=O)C(O)(CC(=O)c2ccc(F)cc2)c2cc(Br)ccc21 (stereo not given) | inconclusive: 18.1% |
| COc1cccc(N2CCN(c3ncnc4c3cnn4-c3ccc(C)cc3C)CC2)c1 | active: 7.71% |

Experiment: viability of PTEN-null HCT116 cells – cell-based, HCT116 clonal line, CellTiter-Glo, pilot screen (AID 824);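 note: 0% = 20 µM Hyamine control and 100% = vehicle cell control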
Conditions: HCT116 PTEN-deleted viability, 60 h, at 10 µM, stronger effect = lower value

| SMILES | viability |
| --- | --- |
| CCOc1ccc(N(CC(=O)Nc2ccccc2C)S(=O)(=O)c2c(C)noc2C)cc1 | active: 18.1% |
| COc1ccc(S(=O)(=O)C(C#N)c2nc3ccccc3nc2N2CCC(C)CC2)cc1 (stereo not given) | inactive: 87.9% |
| COCC(=O)NC(C)c1nc2ccccc2[nH]1 (stereo not given) | inconclusive: 86.7% |
| CC(Sc1nc2c(c(=O)n(C)c(=O)n2C)n1Cc1cc2c(cc1Cl)OCO2)C(=O)O (stereo not given) | inactive: 99.9% |
| CCOC(=O)C1=C(C)N=c2s/c(=C\c3ccncc3)c(=O)n2C1c1ccc2c(c1)OCO2 (stereo not given) | inconclusive: 34.8% |
| CS(=O)(=O)c1nc(-c2cccs2)cc(C(F)(F)F)n1 | inconclusive: 55.2% |
| CCn1c(=O)c2c3c(sc2n2c(SCc4ccc(F)cc4)nnc12)CCCC3 | active: 25.7% |
| C#CCN1C(=O)C(O)(CC(=O)c2ccc(OC)c(OC)c2)c2ccccc21 (stereo not given) | inactive: 48% |
| Cc1ccc(-c2nc(-c3ccccn3)no2)cc1 | active: 24.4% |
| Cc1cc(N2CCN(S(=O)(=O)c3ccc(Cl)cc3)CC2)c2ccccc2n1 | inconclusive: 32.5% |
| COC(=O)c1cn(NC(=O)C2CCCCC2)c(=O)c2ccccc12 | inconclusive: 85.6% |
| CCCCn1c(NC(=O)c2ccccc2)nc2ccccc21 | active: 18.3% |
| COC(=O)c1cc(=O)n(Cc2ccco2)c(=Nc2ccc(F)c(Cl)c2)s1 | inconclusive: 15.9% |
| O=C(CCCCn1c(=O)[nH]c2ccccc2c1=O)NCCc1c[nH]c2ccccc12 | inactive: 93.7% |
| Cc1cc(NS(=O)(=O)c2ccccc2)cc(Cl)c1O | inactive: 86.2% |
| COc1ccc(NC(=O)NCCCN2CCN(c3cc(C)ccc3C)CC2)cc1 | inconclusive: 31.9% |
| CCN(Cc1ccccc1)S(=O)(=O)c1ccc(C(=O)Nc2nnc(C3CC3)o2)cc1 | active: 22.8% |
| O=C(Nc1nnc(-c2cccs2)o1)c1cccc(C(F)(F)F)c1 | active: 19.5% |
| O=C(Nc1nnc(C2CC2)o1)c1ccc(S(=O)(=O)N2CCCc3ccccc32)cc1 | inconclusive: 21.3% |
| OC(COc1ccc(C2C=CCC2)cc1)CN1CCCCC1 (stereo not given) | inconclusive: 41.2% |

| SMILES | viability |
| --- | --- |
| CCCc1nnc2n1N=C(c1ccc(-c3cc(Cl)ccc3Cl)o1)CS2 | inconclusive: 96.2% |
| CC1CC(C)(C)Nc2ccc(OC(=O)c3ccco3)cc21 (stereo not given) | active: 1.59% |
| COc1cccc(C(=O)Nc2ccc3nc(N4CCN(c5ncccn5)CC4)cc(C)c3c2)c1OC | active: 12.8% |
| Cn1nc(-c2ccc(Cl)cc2)c2cc(C(=O)NCCN3CCOCC3)sc21 | inconclusive: 43.4% |
| COc1cccc(-c2nnc(NC(=O)c3cccc(F)c3)o2)c1 | inconclusive: 22.9% |
| CCN1c2ccccc2NC2N=C(OC)C(c3ccccc3)C21 (stereo not given) | active: 2.97% |
| O=C1CSC(=S)N1Cc1cccnc1 | active: 9.45% |
| COc1cc(C(=O)Oc2c(CN3CCOCC3)cc(Cl)c3cccnc23)cc(OC)c1OC | active: 4.81% |
| COc1ccccc1-c1c(C)nn2c(N3CCCCCC3)cc(C)nc12 | active: 7.98% |
| CS(=O)(=O)NCCSCc1ccc(Cl)cc1 | inactive: 97.9% |
| Clc1cccc(-c2nnc(-c3ccccc3)o2)c1 | active: 21.4% |
| COc1ccc(C(=O)NC(C)c2nc3ccccc3[nH]2)cc1OC (stereo not given) | inactive: 97.9% |
| Cc1cc(/C=N/n2cnnc2)c(C)n1-c1ccc(OCc2ccc(F)cc2)cc1 | active: 11.8% |
| N#Cc1c(-c2ccccc2)cc(-c2ccco2)c(C#N)c1N | inconclusive: 46.7% |
| CCCCn1c(=NC(=O)c2ccco2)c(C(=O)OCC)cc2c(=O)n3ccccc3nc21 | active: 20.3% |
| c1coc(CNc2c3c(nc4ccccc24)CCC3)c1 | inconclusive: 36.5% |
| O=C(NCCN1CCOCC1)c1ccc(CS(=O)(=O)c2ccc(Br)cc2)o1 | inactive: 97.6% |
| COCc1cc(CN2CCCC2)c(O)c2ncccc12 | active: 11.3% |
| CN1C(=O)C(O)(CC(=O)c2ccc(F)cc2)c2cc(Br)ccc21 (stereo not given) | active: 15.8% |
| COc1cccc(N2CCN(c3ncnc4c3cnn4-c3ccc(C)cc3C)CC2)c1 | active: 10.3% |
